Test results reported in the RNAGym collection of RNA variant scans (doi:10.1073/pnas.2313332121).
Variants at the background level are over-represented here.

B1: TPR 5TU (parent)
chain: GGAUCUUCUCGAUCUAACAAAAAAGACAAAUCUGCCACAAAGCUUGAGAGCAUCUUCGGAUGCAGAGGCGGCAGCCUUCGGUGGCGCGAUAGCGCCAACGUUCUCAACUAUGACACGCAAAACGCGUGCUCCGUUGAAUGGAGUUUAUCAUG

Variants of: B1
Assay: polymerase ribozyme fitness, log enrichment relative to wild type (log ratio); higher = more active; in vitro selection for triplet polymerase activity
Summary of the method: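 For each subunit of a heterodimeric triplet polymerase ribozyme, a mutant library was built by PCR and transcribed, then taken through a single in vitro selection round in triplicate. Selection involved annealing to a biotinylated primer, the partner subunit and triplets, incubation frozen at −7 °C, gel excision of extended constructs, capture on streptavidin beads and RT-PCR. Genotypes were retained after Illumina sequencing of inputs and outputs only with ≥10 input reads and ≥1 read in each output. Fitness is defined as the logarithm of a genotype's enrichment relative to wild-type enrichment, using inverse-variance-weighted averages across replicates, with the logarithm taken to base 2.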

Row | Variant | polymerase ribozyme fitness (log ratio)
1 | U44C U146G U151G | ≤ -4.2
2 | U44G C63A G68U C87U | ≤ -4.2
3 | A47C A106C C125A A142U | ≤ -4.2
4 | G46C G83U G141U U148C | ≤ -4.2
5 | U45A A49C A52G U77G G94A U139A | ≤ -4.2
6 | U45C U56A A91G U111A | ≤ -4.2
7 | A47U A60U A91C U135G | ≤ -4.2
8 | U44A G117U | ≤ -4.2
9 | U44A C93G C95G C99G A106G C108G U148G | ≤ -4.2
10 | A47C G50C U139A | ≤ -4.2
11 | A47G G86U G88C U109G | ≤ -4.2
12 | G46C C57U G80A G81A | ≤ -4.2
13 | A47C A66U C103G | ≤ -4.2
14 | A47C G59A G84U G94U G124A | -3.56
15 | A47C C95U C116A | -0.555
16 | A47C A119G | 0.0948
17 | A47G C57A U90G A120G | ≤ -4.2
18 | U44A C85U C87A G117U G141U | ≤ -4.2
19 | G46A U53A G68A C87G G92U G143C | ≤ -4.2
20 | G46A C54G G86U G117A A119G A137G G141C G143U | ≤ -4.2
21 | G46A G58U C93U C108A C114U G140U | ≤ -4.2
22 | A47U A107G | ≤ -4.2
23 | A47G U53A G94U A98U U139G U144A | ≤ -4.2
24 | A47U A60U U77G A115G | ≤ -4.2

Row | Variant | polymerase ribozyme fitness (log ratio)
25 | G46A C85G C87U A91G | ≤ -4.2
26 | A47C G48A C87A | ≤ -4.2
27 | G46A G59A A97G C149A | ≤ -4.2
28 | U44G U45G C54U C87A | ≤ -4.2
29 | U45C C93A | -3.52
30 | A47G U61A | -1.41
31 | G46C A47G G71A C85U G88C | ≤ -4.2
32 | U45A C116U | -2.44
33 | U44G A47C G58U G59A U90G C108G G117A | ≤ -4.2
34 | A47G G50A C85A A113C C129U | ≤ -4.2
35 | U45A G92C A97G C99G U145G | ≤ -4.2
36 | U45G C54U A110G | ≤ -4.2
37 | U44A U55A U78C A120U | ≤ -4.2
38 | U44A C69U C96U G117A A122U | ≤ -4.2
39 | U44G A98U | ≤ -4.2
40 | U45G G68U | ≤ -4.2
41 | U45A C72U | ≤ -4.2
42 | U45G A73G C76G A89U C93U C114G | ≤ -4.2
43 | A47C G83C G112C | ≤ -4.2
44 | A47C U61A G94C C103U U104G | ≤ -4.2
45 | A47C A49U C57U C75U U77C C87U C108G G140A | ≤ -4.2
46 | U44G G59U G92C | ≤ -4.2
47 | G46A G68C G83C A147U | ≤ -4.2
48 | A47C C57G G71A A97U U130A G141U | ≤ -4.2

Row | Variant | polymerase ribozyme fitness (log ratio)
49 | A47G G50U G94U G141C | -2.22
50 | U45A C54U C95G A107G | ≤ -4.2
51 | G46U C69G | -0.758
52 | U44A C114U | ≤ -4.2
53 | U44A G50A G74U G88U C95G | ≤ -4.2
54 | G46A G50A C57U A60G G68A G83A G94U G141C | ≤ -4.2
55 | A47C U53A G81A U104G | -1.12
56 | U45A C85A C93U C96U C118A C132A | ≤ -4.2
57 | G46A A52G A91U G112C U145G | ≤ -4.2
58 | U44G G80C C93A G94U | ≤ -4.2
59 | U44C U61G C93G A121C G141U | ≤ -4.2
60 | U45A C79G G84A G92U C108G | ≤ -4.2
61 | U44A U78G C129U | ≤ -4.2
62 | G46U C103G G124A U151G | ≤ -4.2
63 | A47G U55A A91G | -2.78
64 | G46A C76G A91U C95A G141C | ≤ -4.2
65 | U44A G71C A73G G94U A119U G126U A142G | ≤ -4.2
66 | U45A A49U | ≤ -4.2
67 | A47G A60G A64C C76U C93U U145G | ≤ -4.2
68 | U44A A91U | ≤ -4.2
69 | G46A U53A U77A G80A C85A A98U U102C C132G A138G | ≤ -4.2
70 | G46A C87U A89C G94A A113C | ≤ -4.2
71 | U45A U55G C87G G117A | ≤ -4.2
72 | G46A G65A G70U C75A G84A G86U G88U | ≤ -4.2

Row | Variant | polymerase ribozyme fitness (log ratio)
73 | U44G G50C | ≤ -4.2
74 | U45A A64C C93A | ≤ -4.2
75 | G46A C57A G80A G83U C87G G88U U90A A97U U101A U146G | ≤ -4.2
76 | G46C C85G C96U C116A C118A | ≤ -4.2
77 | G46A G68C A89C G124A | ≤ -4.2
78 | G46U A47U G71U C93U A120U | ≤ -4.2
79 | U44G A47C C76A G83A A107U A120U G141C | ≤ -4.2
80 | U44A G59A G88C U144G | ≤ -4.2
81 | U45A G50U A106G | ≤ -4.2
82 | U45A G68A C85G U90A G143U | ≤ -4.2
83 | U45A A52G A64G C69G C75G A121U | ≤ -4.2
84 | U45G C54A U55A C85G G133U | ≤ -4.2
85 | A47C U55G C93U A137C | ≤ -4.2
86 | U45G G83C G128U C132G A147C | ≤ -4.2
87 | U44A C51A A52C G58A A97U A142C U144G | ≤ -4.2
88 | G46A G67A C96U G128C U139C A147U | ≤ -4.2
89 | G46A U82A G83U C93U | ≤ -4.2
90 | U44G G92U | ≤ -4.2
91 | A47C U55G | 0.183
92 | U45C G58U U82C G84A | ≤ -4.2
93 | A47C G48A G124U | -3.59
94 | G46A G50C C132U | ≤ -4.2
95 | U45A C54A G94C A110G G141U | ≤ -4.2
96 | U44A U53G C105U C116G G141C | ≤ -4.2

Row | Variant | polymerase ribozyme fitness (log ratio)
97 | U45G G88A | -4.02
98 | U45A G86C C116U A147C | ≤ -4.2
99 | U44G G58C C75U G86A G94U C99A | ≤ -4.2
100 | A47G C85G U90G C123A | ≤ -4.2
101 | U44A C54U A115U | ≤ -4.2
102 | A47G C54A U61G C72U G94C C99U U102G G140A A142U A150C | ≤ -4.2
103 | U44A C85G | ≤ -4.2
104 | U45A G83C C99U G112A U130A | ≤ -4.2
105 | U44G U45G C72G U144C A147G | ≤ -4.2
106 | U45A G50C U53A C54G G83C C114A U127G C131U U134G | ≤ -4.2
107 | G46U G58A G59A C103G | ≤ -4.2
108 | U44A G83U | -3.94
109 | U44G A49C C54A G83C G92A | ≤ -4.2
110 | U44A C85U U139C | ≤ -4.2
111 | A47G C93G U144A | -2.58
112 | U45G G46A C75A G86U U144G | ≤ -4.2
113 | G46A U61G G80U A122U A138C | ≤ -4.2
114 | G46A A52C C54G G83U | ≤ -4.2
115 | U45G U55G A66C C85U G141C | ≤ -4.2
116 | G46U U55G U56C A91G G141U U151C | ≤ -4.2
117 | A47G A52G U56A C87G | ≤ -4.2
118 | U44G U61G A91C U102A U130G | ≤ -4.2
119 | G46A G50C U77C C95A A119G | ≤ -4.2
120 | U44C C57A C76U C95U C105U U148G | ≤ -4.2

Row | Variant | polymerase ribozyme fitness (log ratio)
121 | A47C U55A G68A A73G C118G U127A G143U | ≤ -4.2
122 | A47G A91U C95G U102C G133U | ≤ -4.2
123 | U45A C79G A89U G92U G100A | ≤ -4.2
124 | A47C C87G G88C | ≤ -4.2
125 | U45G A47G C54U C93G | ≤ -4.2
126 | U44A G58U A66C U127G U145G | ≤ -4.2
127 | G46A G62C U135A | ≤ -4.2
128 | A47C U55A G80C A91G G152A | ≤ -4.2
129 | G46A C129U | -3.61
130 | U45A G92C U144A | -3.41
131 | A47C C54A U56A C75A G86A C93A A107G C132A | ≤ -4.2
132 | U45G G59U A91U C93A U135A | ≤ -4.2
133 | A47C A49C C54U G83U C93U C149G | ≤ -4.2
134 | U44A C93U A119C | ≤ -4.2
135 | G46A G50C U56A G83U A147C | ≤ -4.2
136 | G46A A52G C85A | -2.54
137 | U45A C54A C95A A113G C129A | ≤ -4.2
138 | U45A A47C C69G G80C G81A C85U G92A G143U | ≤ -4.2
139 | U45A G68U C85G U104G A137U A142C | ≤ -4.2
140 | G46C A60G C85A C87A C105G C116G | ≤ -4.2
141 | A47C A49C U144G | -4
142 | A47C G50A G92A C116G G117C | ≤ -4.2
143 | G46A U77A G94A C105U G124A | ≤ -4.2
144 | U44A G48A G58C G83A | ≤ -4.2

Row | Variant | polymerase ribozyme fitness (log ratio)
145 | U45G G92U C103A U104A | ≤ -4.2
146 | U45A U82G G84U C87G C95A | ≤ -4.2
147 | U45G A64C U148G | ≤ -4.2
148 | A47U A121U A147C C149U | -3.04
149 | A47C A49G C51G C75G A89C G94A U145A | ≤ -4.2
150 | U45A G100C C118A | ≤ -4.2
151 | U44A A60U G92U G141U U145A | ≤ -4.2
152 | U45G G50A C93G C96U C114U A120U U135G | ≤ -4.2
153 | U45A C54U G92U G100C A110G G128U U151G | ≤ -4.2
154 | U45C C57G G59U A66U G94A | ≤ -4.2
155 | G46U A47C G71C G92A C95G U151G | ≤ -4.2
156 | A47C G50U G58U A91G A97U U102A | ≤ -4.2
157 | G46A A52G U53G G94C G141C | ≤ -4.2
158 | U45A C99G G124U | ≤ -4.2
159 | A47C U55A C93U U109C G133U G140U A147G | ≤ -4.2
160 | U44G C75G C93A U135A | ≤ -4.2
161 | U44A G50C U77A C87A C99U G140C A147U | ≤ -4.2
162 | U45A G92C U111A | ≤ -4.2
163 | U44A A142C | ≤ -4.2
164 | U45A U77A C87U U90G G92C G126A A138G | ≤ -4.2
165 | U44A G81A G86U A89G U134C U146A | ≤ -4.2
166 | G46C C75U G88A A106U C116G | ≤ -4.2
167 | U45A G65C A73G G84A A142G | ≤ -4.2
